In DBAASP one finds MIC data, which are given here for nine molecules.

Test systems include Candida albicans; Escherichia coli; Staphylococcus aureus; Proteus vulgaris; Bacillus subtilis; Pseudomonas aeruginosa; Enterobacter cloacae; Escherichia coli K91BK.
Common to all, as to test: ≥ marks a high value that may be exact or a test limit, other limits are often not marked
Test [1] concerns Staphylococcus aureus ATCC 6538.
Test [2] concerns Bacillus subtilis ATCC 9372.
In test [3] the test system is Escherichia coli ATCC 8739.
Test [4] concerns Pseudomonas aeruginosa ATCC 9027.
Test [5] deals with Proteus vulgaris NCTC 4635.
Test [6] has as its system Escherichia coli ATCC 25922.
In test [7] the test system is Enterobacter cloacae HNTCC 53001.
The test system of test [8] is Staphylococcus aureus NCTC 8325.
For test [9], the system named is Pseudomonas aeruginosa ATCC 27853.
The test system of test [10] is Proteus mirabilis ATCC 25933.
The subject of test [11] is Candida albicans ATCC 90028.
Test [12] has as its system Staphylococcus epidermidis RP62A.
Test [13] deals with Klebsiella pneumoniae KK3 9904.
Test [14] relates to Enterococcus faecalis ATCC 29212.
Test [15] relates to Proteus vulgaris NBRC 3045.
Test [16] relates to Escherichia coli KCTC 1682.
The test system of test [17] is Staphylococcus aureus KCTC 1621.
Test [18] relates to Bacillus subtilis KCTC 1918.
Test [19] has as its system Fusarium oxysporum KCTC 6084.
Test [20] relates to Aspergillus flavus KCTC 7375.
Test [21] deals with Pseudomonas aeruginosa KCTC 1637.
Test [22] has as its system Trichosporon beigelii KCTC 7251.
Test [23] deals with Candida albicans KCTC 7121.
The test system of test [24] is Bacillus megaterium KCTC 1096.
The test system of test [25] is Staphylococcus aureus ATCC 25923.
Test [26] concerns Salmonella enterica subsp. enterica serovar Typhi.
Test [27] deals with Bacillus subtilis var. niger ATCC 9372.
Test [28] relates to Burkholderia thailandensis.

≈ marks a conversion by molar mass, not a printed value. Some results are limits rather than exact numbers.

In the case of `CC[C@H](C)[C@H](NC(=O)[C@@H](NC(=O)[C@H](CO)NC(=O)[C@H](C)NC(=O)[C@@H](NC(=O)[C@H](CCCCN)NC(=O)[C@H](CCCCN)NC(=O)[C@@H](NC(=O)[C@@H](NC(=O)[C@H](C)NC(=O)[C@H](Cc1ccccc1)NC(=O)[C@H](CC(C)C)NC(=O)CN)C(C)C)[C@@H](C)CC)C(C)C)C(C)C)C(=O)O` [GLFAVIKKVASVI], the MIC (as a rule, the smallest concentration in the dilution series that meets the test's criterion for growth inhibition) in test [1] was 11.9 µM (≈ 16 µg/mL); in test [2], 11.9 µM (≈ 16 µg/mL); in test [3], 11.9 µM (≈ 16 µg/mL); in [4] it was 47.6 µM (≈ 64 µg/mL); in test [5], no less than 190 µM.

Take `CC[C@H](C)[C@H](NC(=O)[C@@H](NC(=O)[C@H](CC(=O)O)NC(=O)[C@H](Cc1ccccc1)NC(=O)[C@H](CC(C)C)NC(=O)CN)C(C)C)C(=O)N[C@@H](CCCCN)C(=O)N[C@@H](CCCCN)C(=O)N[C@H](C(=O)O)C(C)C` [GLFDVIKKV]: the MIC in test [1] was greater than 1010 µM; in test [2], no less than 1010 µM; in test [3] it was no less than 1010 µM; in test [4], 1010 µM (≈ 1020 µg/mL); in test [5], no less than 1010 µM.

As to `CC[C@H](C)[C@H](NC(=O)CNC(=O)[C@H](CCC(N)=O)NC(=O)[C@H](Cc1ccccc1)NC(=O)[C@@H](NC(=O)[C@H](CCCCN)NC(=O)[C@H](CCCCN)NC(=O)[C@H](CC(C)C)NC(=O)[C@H](C)NC(=O)[C@H](CC(N)=O)NC(=O)[C@H](CC(C)C)NC(=O)CN)C(C)C)C(=O)N[C@@H](Cc1c[nH]cn1)C(=O)N[C@@H](CCC(=O)O)C(=O)N[C@@H](C)C(=O)N[C@H](C(=O)N[C@@H](CCCCN)C(=O)N[C@@H](CC(C)C)C(=O)N[C@H](C(=O)N[C@@H](CC(N)=O)C(=O)N[C@@H](CC(N)=O)C(=O)N[C@@H](Cc1c[nH]cn1)C(=O)N[C@H](C(=O)N[C@@H](CCC(N)=O)C(=O)O)C(C)C)[C@@H](C)CC)[C@@H](C)CC` [GLNALKKVFQGIHEAIKLINNHVQ], the minimum inhibitory concentration (MIC) is 130 µM (≈ 349 µg/mL) in the test on Candida albicans; 20 µM (≈ 53.7 µg/mL) in test [6]; no less than 80 µM in test [7]; no less than 80 µM in test [8]; 2.5 µM (≈ 6.71 µg/mL) with Escherichia coli; 80 µM (≈ 215 µg/mL) in test [9]. The minimum inhibitory concentration (MIC) is no less than 80 µM in test [10]; no less than 80 µM in test [11]; no less than 80 µM in [12]; no less than 40 µM in test [13]; greater than 80 µM in test [14]; 80 µM (≈ 215 µg/mL) against Staphylococcus aureus.

On to `CC(C)C[C@H](NC(=O)CNC(=O)CNC(=O)CNC(=O)[C@H](CCCCN)NC(=O)[C@H](CCCCN)NC(=O)[C@H](CCCCN)NC(=O)[C@H](CCCCN)NC(=O)[C@H](CCCCN)NC(=O)[C@H](CCCCN)NC(=O)[C@H](CCCCN)NC(=O)[C@H](CCCCN)NC(=O)[C@@H](N)CCCCN)C(=O)N[C@@H](CC(C)C)C(=O)N[C@@H](C)C(=O)N[C@@H](CC(C)C)C(=O)N[C@@H](CC(C)C)C(=O)N[C@@H](C)C(=O)N[C@@H](CC(C)C)C(=O)N[C@@H](CC(C)C)C(=O)N[C@@H](C)C(N)=O` [KKKKKKKKKGGGLLALLALLA], for which, in test [15], the minimal inhibitory concentration (MIC) was no less than 100 µM.

Turning to `CC[C@H](C)[C@H](NC(=O)[C@H](CCCCN)NC(=O)[C@H](CCCCN)NC(=O)[C@H](Cc1ccccc1)NC(=O)[C@H](CC(C)C)NC(=O)[C@H](CCCCN)NC(=O)[C@H](Cc1c[nH]c2ccccc12)NC(=O)[C@@H](N)CCCCN)C(=O)N1CCC[C@H]1C(=O)N[C@@H](CCCCN)C(=O)N[C@@H](Cc1ccccc1)C(=O)N[C@@H](CC(C)C)C(=O)N[C@@H](Cc1cnc[nH]1)C(=O)N[C@@H](CC(C)C)C(=O)N[C@@H](C)C(=O)N[C@@H](CCCCN)C(=O)N[C@@H](CCCCN)C(N)=O` [KWKLFKKIPKFLHLAKK], the minimal inhibitory concentration (MIC) amounted to 6.25 µM (≈ 13.5 µg/mL) in test [16]; 3.12 µM (≈ 6.73 µg/mL) in [17]; 1.56 µM (≈ 3.36 µg/mL) in [18]; 25 µM (≈ 53.8 µg/mL) in [19]; 25 µM (≈ 53.8 µg/mL) in test [20]; 1.56 µM (≈ 3.36 µg/mL) against Proteus vulgaris. In addition, the MIC in [21] was 6.25 µM (≈ 13.5 µg/mL); in test [22], 25 µM (≈ 53.8 µg/mL); in test [23] it was 25 µM (≈ 53.8 µg/mL); in [24], 1.56 µM (≈ 3.36 µg/mL).

For `CC[C@H](C)[C@H](NC(=O)[C@H](CCCCN)NC(=O)[C@H](CCCCN)NC(=O)[C@H](Cc1ccccc1)NC(=O)[C@H](CC(C)C)NC(=O)[C@H](CCCCN)NC(=O)[C@H](Cc1c[nH]c2ccccc12)NC(=O)[C@@H](N)CCCCN)C(=O)N1CCC[C@H]1C(=O)N[C@@H](CCCCN)C(=O)N[C@@H](Cc1ccccc1)C(=O)N[C@@H](CC(C)C)C(=O)N[C@@H](Cc1cnc[nH]1)C(N)=O` [KWKLFKKIPKFLH], the MIC in test [16] was 6.25 µM (≈ 10.7 µg/mL); in test [17] it was 6.25 µM (≈ 10.7 µg/mL); in [18], 1.56 µM (≈ 2.67 µg/mL); in test [19], no less than 200 µM; in [20], no less than 200 µM; with Proteus vulgaris, 3.12 µM (≈ 5.35 µg/mL). Moreover, the MIC in test [21] was 8.84 µM (≈ 15.1 µg/mL); in [22], no less than 100 µM; in [23], no less than 100 µM; in test [24] it was 3.12 µM (≈ 5.35 µg/mL).

For the molecule `CC(C)C[C@H](NC(=O)[C@H](CCCCN)NC(=O)[C@H](CCCN=C(N)N)NC(=O)[C@H](Cc1ccccc1)NC(=O)[C@H](Cc1ccccc1)NC(=O)[C@H](CCCCN)NC(=O)[C@H](CCCCN)NC(=O)[C@H](Cc1ccccc1)NC(=O)[C@H](CCCN=C(N)N)NC(=O)[C@H](CCCCN)NC(=O)[C@@H](NC(=O)[C@@H](N)CC(C)C)C(C)C)C(=O)N[C@@H](CCCCN)C(=O)N[C@@H](CCCCN)C(=O)N[C@@H](CO)C(N)=O` [LVKRFKKFFRKLKKS], the MIC in test [6] is 32.8 µM (≈ 64 µg/mL); with Bacillus subtilis, no less than 32.8 µM; against Escherichia coli it was 16.4 µM (≈ 32 µg/mL); in [9], 65.5 µM (≈ 128 µg/mL); in the test with Pseudomonas aeruginosa, 4.1 µM (≈ 8 µg/mL); in test [25], 1.02 µM (≈ 2 µg/mL). The MIC in test [26] was 4.1 µM (≈ 8 µg/mL); in [11], no less than 32.8 µM; against Enterobacter cloacae, no less than 131 µM; against Staphylococcus aureus, 65.5 µM (≈ 128 µg/mL).

For `CC[C@H](C)[C@H](NC(=O)[C@H](CCCCN)NC(=O)[C@H](CCCN=C(N)N)NC(=O)CNC(=O)[C@H](CC(C)C)NC(=O)[C@H](CCCN=C(N)N)NC(=O)[C@H](CCCN=C(N)N)NC(=O)[C@H](CC(C)C)NC(=O)CNC(=O)[C@H](CCCN=C(N)N)NC(C)=O)C(=O)N[C@@H](C)C(=O)N[C@@H](Cc1cnc[nH]1)C(=O)NCC(=O)N[C@H](C(=O)N[C@@H](CCCCN)C(=O)N[C@@H](CCCCN)C(=O)N[C@@H](Cc1ccc(O)cc1)C(=O)NCC(=O)N1CCC[C@H]1C(=O)N[C@H](C(=O)N[C@H](C(=O)N[C@@H](CCCCN)C(=O)N[C@@H](CCCN=C(N)N)C(=O)N[C@H](C(=O)N[C@@H](CCCCN)C(=O)N[C@@H](CCCN=C(N)N)C(=O)N[C@@H](CCCCN)C(=O)N[C@@H](C)C(N)=O)[C@@H](C)CC)C(C)C)[C@@H](C)O)C(C)C` [RGLRRLGRKIAHGVKKYGPTVKRIKRKA], the minimal inhibitory concentration (MIC) was 12.5 µM (≈ 41.1 µg/mL) in [27], no less than 100 µM in test [28] and no less than 100 µM in the test on Escherichia coli K91BK.

Regarding `CC(C)C[C@H](NC(=O)[C@H](CCCCN)NC(=O)[C@H](CCCCN)NC(=O)[C@@H](NC(=O)[C@H](CO)NC(=O)[C@H](CCCCN)NC(=O)[C@H](CCCCN)NC(=O)[C@H](CC(C)C)NC(=O)[C@H](CCCCN)NC(=O)[C@H](CCCN=C(N)N)NC(=O)[C@H](Cc1ccccc1)NC(=O)[C@H](Cc1ccccc1)NC(=O)[C@H](CCCCN)NC(=O)[C@H](CCCCN)NC(=O)[C@H](Cc1ccccc1)NC(=O)[C@H](CCCN=C(N)N)NC(=O)[C@H](CCCCN)NC(=O)[C@@H](N)C(C)C)C(C)C)C(N)=O` [VKRFKKFFRKLKKSVKKL], the MIC in test [6] was 13.9 µM (≈ 32 µg/mL); against Bacillus subtilis it was 27.7 µM (≈ 64 µg/mL); in the test with Escherichia coli, 27.7 µM (≈ 64 µg/mL); in test [9], 27.7 µM (≈ 64 µg/mL); with Pseudomonas aeruginosa, 6.93 µM (≈ 16 µg/mL); in test [25], 1.73 µM (≈ 4 µg/mL). Further, the MIC turned out to be 1.73 µM (≈ 4 µg/mL) in [26], 27.7 µM (≈ 64 µg/mL) in [11], 13.9 µM (≈ 32 µg/mL) against Enterobacter cloacae and 55.4 µM (≈ 128 µg/mL) against Staphylococcus aureus.
